# Experimental data as given in the supplement of paper PMC8728848.
# This is one part of the list.
# What was measured:
# Assay in all cases: glycan array binding signal (z-score within array); higher = stronger binding
# Conditions in all cases: glycan notation: IUPAC condensed, linker removed
# [1] = target: GlcNAc(b1-3)Gal(b1-4)GlcNAc(b1-3)Gal(b1-4)GlcNAc(b1-2)Man(a1-3)[GlcNAc(b1-3)Gal(b1-4)GlcNAc(b1-3)Gal(b1-4)GlcNAc(b1-2)Man(a1-6)]Man(b1-4)GlcNAc(b1-4)[Fuc(a1-6)]GlcNAc
# Procedure, shortened: (§1)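 Arrays were curated from the Consortium for Functional Glycomics database, 3228 in total, and kept only where the protein sequence was available. Binding is expressed as a within-array Z-score. This score was averaged across arrays of the same protein sequence at different concentrations or buffers and across linkers, and negative values can be read as non-binding.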
# [2] = target: GlcNAc(b1-3)Gal(b1-4)GlcNAc(b1-3)Gal(b1-4)GlcNAc(b1-2)[GlcNAc(b1-3)Gal(b1-4)GlcNAc(b1-3)Gal(b1-4)GlcNAc(b1-6)]Man(a1-6)[GlcNAc(b1-3)Gal(b1-4)GlcNAc(b1-3)Gal(b1-4)GlcNAc(b1-2)Man(a1-3)]Man(b1-4)GlcNAc(b1-4)[Fuc(a1-6)]GlcNAc
# Procedure, shortened: as §1
# [3] = target: GlcNAc(b1-3)Gal(b1-4)GlcNAc(b1-3)Gal(b1-4)GlcNAc(b1-3)Gal(b1-4)GlcNAc(b1-2)Man(a1-3)[GlcNAc(b1-3)Gal(b1-4)GlcNAc(b1-3)Gal(b1-4)GlcNAc(b1-3)Gal(b1-4)GlcNAc(b1-2)Man(a1-6)]Man(b1-4)GlcNAc(b1-4)GlcNAc
# Procedure, shortened: as §1
# [4] = target: GlcNAc(b1-3)Gal(b1-4)GlcNAc(b1-3)Gal(b1-4)GlcNAc(b1-3)Gal(b1-4)GlcNAc(b1-2)Man(a1-3)[GlcNAc(b1-3)Gal(b1-4)GlcNAc(b1-3)Gal(b1-4)GlcNAc(b1-3)Gal(b1-4)GlcNAc(b1-2)Man(a1-6)]Man(b1-4)GlcNAc(b1-4)[Fuc(a1-6)]GlcNAc
# Procedure, shortened: as §1
# [5] = target: GlcNAc(b1-3)Gal(b1-4)GlcNAc(b1-3)Gal(b1-4)GlcNAc(b1-3)Gal(b1-4)GlcNAc(b1-2)[GlcNAc(b1-3)Gal(b1-4)GlcNAc(b1-3)Gal(b1-4)GlcNAc(b1-3)Gal(b1-4)GlcNAc(b1-6)]Man(a1-6)[GlcNAc(b1-3)Gal(b1-4)GlcNAc(b1-3)Gal(b1-4)GlcNAc(b1-3)Gal(b1-4)GlcNAc(b1-2)Man(a1-3)]Man(b1-4)GlcNAc(b1-4)[Fuc(a1-6)]GlcNAc
# Procedure, shortened: as §1
# [6] = target: GlcNAc(b1-3)Gal(b1-4)GlcNAc(b1-3)Gal(b1-4)GlcNAc(b1-3)Gal(b1-4)GlcNAc(b1-3)Gal(b1-4)GlcNAc(b1-2)Man(a1-3)[GlcNAc(b1-3)Gal(b1-4)GlcNAc(b1-3)Gal(b1-4)GlcNAc(b1-3)Gal(b1-4)GlcNAc(b1-3)Gal(b1-4)GlcNAc(b1-2)Man(a1-6)]Man(b1-4)GlcNAc(b1-4)GlcNAc
# Procedure, shortened: as §1
# [7] = target: GlcNAc(b1-3)Gal(b1-4)GlcNAc(b1-3)Gal(b1-4)GlcNAc(b1-3)Gal(b1-4)GlcNAc(b1-3)Gal(b1-4)GlcNAc(b1-2)Man(a1-3)[GlcNAc(b1-3)Gal(b1-4)GlcNAc(b1-3)Gal(b1-4)GlcNAc(b1-3)Gal(b1-4)GlcNAc(b1-3)Gal(b1-4)GlcNAc(b1-2)Man(a1-6)]Man(b1-4)GlcNAc(b1-4)[Fuc(a1-6)]GlcNAc
# Procedure, shortened: as §1
# [8] = target: GlcNAc(b1-3)Gal(b1-4)GlcNAc(b1-3)Gal(b1-4)GlcNAc(b1-3)Gal(b1-4)GlcNAc(b1-3)Gal(b1-4)GlcNAc(b1-2)[GlcNAc(b1-3)Gal(b1-4)GlcNAc(b1-3)Gal(b1-4)GlcNAc(b1-3)Gal(b1-4)GlcNAc(b1-3)Gal(b1-4)GlcNAc(b1-6)]Man(a1-6)[GlcNAc(b1-3)Gal(b1-4)GlcNAc(b1-3)Gal(b1-4)GlcNAc(b1-3)Gal(b1-4)GlcNAc(b1-3)Gal(b1-4)GlcNAc(b1-2)Man(a1-3)]Man(b1-4)GlcNAc(b1-4)[Fuc(a1-6)]GlcNAc
# Procedure, shortened: as §1
# [9] = target: GlcNAc(b1-3)Gal(b1-4)GlcNAc(b1-3)Gal(b1-4)GlcNAc(b1-3)GalNAc
# Procedure, shortened: as §1
# [10] = target: GlcNAc(b1-3)Gal(b1-4)GlcNAc(b1-3)GalNAc
# Procedure, shortened: as §1
# [11] = target: GlcNAc(b1-3)Gal(b1-4)GlcNAc(b1-3)[GlcNAc(b1-3)Gal(b1-4)GlcNAc(b1-3)]GalNAc
# Procedure, shortened: as §1
# [12] = target: GlcNAc(b1-3)Gal(b1-4)GlcNAc(b1-6)[Gal(b1-3)]GalNAc
# Procedure, shortened: as §1
# [13] = target: GlcNAc(b1-3)Gal(b1-4)GlcNAc(b1-6)[GlcNAc(b1-3)Gal(b1-3)]GalNAc
# Procedure, shortened: as §1
# [14] = target: GlcNAc(b1-3)Gal(b1-4)GlcNAc(b1-6)[GlcNAc(b1-3)]Gal(b1-4)GlcNAc
# Procedure, shortened: as §1
# GlcNAc(b1-3)GalNAc = target: GlcNAc(b1-3)GalNAc
# Procedure, shortened: as §1
# GlcNAc(b1-3)Man = target: GlcNAc(b1-3)Man
# Procedure, shortened: as §1
# [15] = target: GlcNAc(b1-3)[GlcNAc(b1-4)][GlcNAc(b1-6)]GlcNAc
# Procedure, shortened: as §1
# [16] = target: GlcNAc(b1-3)[GlcNAc(b1-6)]Gal(b1-4)GlcNAc
# Procedure, shortened: as §1
# [17] = target: GlcNAc(b1-3)[GlcNAc(b1-6)]GalNAc
# Procedure, shortened: as §1
# [18] = target: GlcNAc(b1-4)Gal(b1-4)GlcNAc
# Procedure, shortened: as §1
# GlcNAc(b1-4)GlcNAc = target: GlcNAc(b1-4)GlcNAc
# Procedure, shortened: as §1
# [19] = target: GlcNAc(b1-4)GlcNAc(b1-4)GlcNAc
# Procedure, shortened: as §1
# [20] = target: GlcNAc(b1-4)GlcNAc(b1-4)GlcNAc(b1-4)GlcNAc(b1-4)GlcNAc
# Procedure, shortened: as §1
# [21] = target: GlcNAc(b1-4)GlcNAc(b1-4)GlcNAc(b1-4)GlcNAc(b1-4)GlcNAc(b1-4)GlcNAc
# Procedure, shortened: as §1
# [22] = target: GlcNAc(b1-4)[GlcNAc(b1-6)]GalNAc
# Procedure, shortened: as §1
# [23] = target: GlcNAc(b1-6)Gal(b1-4)GlcNAc
# Procedure, shortened: as §1
# GlcNAc(b1-6)GalNAc = target: GlcNAc(b1-6)GalNAc
# Procedure, shortened: as §1
# [24] = target: GlcNAc6S(b1-3)Gal(b1-4)GlcNAc
# Procedure, shortened: as §1
# Kdn(a2-3)Gal(b1-3)GalNAc = target: Kdn(a2-3)Gal(b1-3)GalNAc
# Procedure, shortened: as §1
# Kdn(a2-3)Gal(b1-3)GlcNAc = target: Kdn(a2-3)Gal(b1-3)GlcNAc
# Procedure, shortened: as §1
# Kdn(a2-3)Gal(b1-4)Glc = target: Kdn(a2-3)Gal(b1-4)Glc
# Procedure, shortened: as §1
# Kdn(a2-3)Gal(b1-4)GlcNAc = target: Kdn(a2-3)Gal(b1-4)GlcNAc
# Procedure, shortened: as §1
# [25] = target: Kdn(a2-3)Gal(b1-4)[Fuc(a1-3)]GlcNAc
# Procedure, shortened: as §1
# Kdn(a2-6)Gal(b1-4)GlcNAc = target: Kdn(a2-6)Gal(b1-4)GlcNAc
# Procedure, shortened: as §1
# [26] = target: Man(a1-2)Man(a1-2)Man(a1-3)Man
# Procedure, shortened: as §1
# [27] = target: Man(a1-2)Man(a1-2)Man(a1-6)[Man(a1-3)]Man
# Procedure, shortened: as §1
# Man(a1-2)Man(a1-3)Man = target: Man(a1-2)Man(a1-3)Man
# Procedure, shortened: as §1
# [28] = target: Man(a1-2)Man(a1-3)[Man(a1-2)Man(a1-6)]Man
# Procedure, shortened: as §1
binder,measurement,setting,value
Cohesin-marm-DC-ASGPR-CRD (protein) LDITSHHHHHHDDLDAVRIKVDTVNAKPGDTVRIPVRFSGIPSKGIANCDFVYSYDPNVLEIIEIEPGDIIVDPNPDKSFDTAVYPDRKIIVFLFAEDSGTGAYAITKDGVFATIVAKVKEGAPNGLSVIKFVEVGGFANNDLVEQKTQFFDGGVNVGDTTEPATPTTPVTTPTTTDDLDAASCPINWVEHQGSCYWFSRSGKTWPEAERYCQLENTHLVVINSREEQNFVQAHLGSAYTWMGLSDPEGVWKWVDGTDYSSGFQNWKPGQPDDWQGHGLGGGEDCAHFHPDGRWNDDVCQRSYHWVCEAGLTQASQDSH,glycan array binding signal (z-score),[1],-0.377
same,glycan array binding signal (z-score),[2],-0.416
same,glycan array binding signal (z-score),[3],-0.414
same,glycan array binding signal (z-score),[4],-0.364
same,glycan array binding signal (z-score),[5],-0.429
same,glycan array binding signal (z-score),[6],-0.38
same,glycan array binding signal (z-score),[7],-0.368
same,glycan array binding signal (z-score),[8],-0.405
same,glycan array binding signal (z-score),[9],-0.405
same,glycan array binding signal (z-score),[10],-0.438
same,glycan array binding signal (z-score),[11],-0.439
same,glycan array binding signal (z-score),[12],-0.415
same,glycan array binding signal (z-score),[13],-0.431
same,glycan array binding signal (z-score),[14],-0.455
same,glycan array binding signal (z-score),GlcNAc(b1-3)GalNAc,-0.426
same,glycan array binding signal (z-score),GlcNAc(b1-3)Man,-0.434
same,glycan array binding signal (z-score),[15],-0.438
same,glycan array binding signal (z-score),[16],-0.443
same,glycan array binding signal (z-score),[17],-0.431
same,glycan array binding signal (z-score),[18],-0.439
same,glycan array binding signal (z-score),GlcNAc(b1-4)GlcNAc,-0.415
same,glycan array binding signal (z-score),[19],-0.446
same,glycan array binding signal (z-score),[20],-0.431
same,glycan array binding signal (z-score),[21],-0.451
same,glycan array binding signal (z-score),[22],-0.383
same,glycan array binding signal (z-score),[23],-0.441
same,glycan array binding signal (z-score),GlcNAc(b1-6)GalNAc,2.94
same,glycan array binding signal (z-score),[24],-0.392
same,glycan array binding signal (z-score),Kdn(a2-3)Gal(b1-3)GalNAc,-0.362
same,glycan array binding signal (z-score),Kdn(a2-3)Gal(b1-3)GlcNAc,-0.442
same,glycan array binding signal (z-score),Kdn(a2-3)Gal(b1-4)Glc,-0.436
same,glycan array binding signal (z-score),Kdn(a2-3)Gal(b1-4)GlcNAc,-0.439
same,glycan array binding signal (z-score),[25],-0.422
same,glycan array binding signal (z-score),Kdn(a2-6)Gal(b1-4)GlcNAc,-0.446
same,glycan array binding signal (z-score),[26],-0.43
same,glycan array binding signal (z-score),[27],-0.448
same,glycan array binding signal (z-score),Man(a1-2)Man(a1-3)Man,-0.438
same,glycan array binding signal (z-score),[28],-0.447
